Common to all, as to test: whole plant or invertebrate
The subject of assay [1] is common house mosquito (Culex pipiens pallens). As for the experimental part: The above test chemical solution (0.7 mL) was added to 100 mL of deionized water to adjust an active ingredient concentration to 3.5 ppm. Twenty (20) heads of last instar larvae of common house mosquito (Culex pipiens pallens) were released in the solution and the number of dead insects was counted after 8 days.
Mortality was determined by the following equation. Mortality (%)=(number of dead insects/number of test insects)×100
The above test chemical solution (0.7 mL) was added to 100 mL of deionized water to adjust an active ingredient concentration to 3.5 ppm. Twenty (20) heads of last instar larvae of common house mosquito (Culex pipiens pallens) were released in the solution and, after one day, the number of dead insects was counted.

The subject of assay [2] is cabbage moth (Plutella xylostella). The settings on record: 120 h. As for the experimental part:
Cabbage (cultivar: GREEN BALL) was planted in each of polyethylene cups and grown until the third true leaf or the fourth true leaf was developed. The above test chemical solution was sprayed over the cabbage at a rate of 20 mL/cup. After drying the chemical solution, the polyethylene cup having a diameter of 5.5 cm covered with a filter paper laid on the bottom, the cabbage cut out from the root was placed and 5 heads of third instar larvae of cabbage moth (Plutella xylostella) were released in the cup and the cup was covered with the lid. The cup was held at 25° C. and, after 5 days, the number of the surviving insects was counted and the mortality of insects was calculated by the following equation. Mortality (%)=(number of dead insects/number of test insects)×100

Assay [3] concerns German cockroach (Blattella germanica). The settings on record: 144 h. As for the experimental part: On each of polyethylene cups having a diameter of 5.5 cm, a filter paper having the same size was laid. The above test chemical solution (0.7 ml) was dropped on the filter paper and 30 mg of sucrose was placed as bait. Two (2) heads of male adult German cockroach (Blattella germanica) were released in the polyethylene cup and the cup was covered with the lid. After 6 days, the life or death of German cockroach was investigated and mortality was determined by the following equation. Mortality (%)=(number of dead insects/number of test insects)×100

Molecules are shown by their SMILES.

Our source for the mortality values is patent publication US9867372B2, “Tetrazolinone compound and use of same” (SUMITOMO CHEMICAL COMPANY, LIMITED, priority 2013, dated 2018).

What is called mortality is the percentage killed. A high value points to a strong lethal effect. In turn, `COc1ccccc1-c1cccc(OCc2c(C)cccc2-n2nnn(C)c2=O)n1` [compound 19] yielded a mortality at 3.5 ppm in assay [1] (24 h) of 100%. On to `Cc1cccc(-n2nnn(C)c2=O)c1COc1cccc(-c2ccncc2)n1` [compound 20], for which, in assay [1] (24 h), the mortality at 3.5 ppm was 100%.

Turning to `Cc1cccc(-n2nnn(C)c2=O)c1COc1cccc(-c2ccc(Br)cc2)n1` [compound 23], the mortality at 3.5 ppm in assay [1] (192 h) was determined as 100%.

Turning to `Cc1cccc(-n2nnn(C)c2=O)c1COc1cc(-c2ccccc2)ncn1` [compound 25], in assay [2], the mortality at 500 ppm is no less than 80%. For `Cc1cccc(-n2nnn(C)c2=O)c1COc1cc(-c2ccc(C#N)cc2)ncn1` [compound 28], the mortality at 3.5 ppm in assay [1] (24 h) was determined as 100%. Regarding `COc1ccc(-c2ccnc(OCc3c(C)cccc3-n3nnn(C)c3=O)c2)cc1` [compound 29], in assay [1] (24 h), the mortality at 3.5 ppm was determined as 100%. Turning to `COc1ccccc1-c1cccc(OCc2c(C)cccc2-n2nnn(C)c2=O)c1` [compound 52], the mortality at 3.5 ppm in assay [1] (24 h) came to 100%. Further, the mortality at 500 ppm in assay [2] was no less than 80%.

Molecule `Cc1cccc(-n2nnn(C)c2=O)c1COc1cccc(-c2ccc3c(c2)OCO3)c1` [compound 60] displayed a mortality at 3.5 ppm in assay [1] (192 h) of 100%. As to `Cn1nnn(-c2cccc(C3CC3)c2COc2cccc(-c3ccc(F)cc3)n2)c1=O` [compound 66], the mortality at 3.5 ppm in assay [1] (192 h) amounted to 100%.

Turning to `COc1ccc(-c2cccc(OCc3c(Cl)cccc3-n3nnn(C)c3=O)n2)cc1` [compound 67], the mortality at 500 ppm in assay [3] came out at 100%. The molecule `Cc1cccc(-n2nnn(C)c2=O)c1COc1cccc(-c2ccc(OC(C)C)cc2)n1` [compound 73] had a mortality at 3.5 ppm in assay [1] (192 h) of 100%. In turn, `COc1ccc(-c2cc(OCc3c(C)cccc3-n3nnn(C)c3=O)ccc2C)cc1` [compound 120] yielded a mortality at 500 ppm in assay [2] of no less than 80%.
